# Results: the supplement of paper PMC10126150
# Sequences with one replicate were seen in a single cluster, so their values are uncertain.
# Tested on: ATP
# Experiment: switch fluorescence ratio, 500 uM ATP over buffer (Cy3 cluster intensity, sum of 5 cycles each) (fold (ratio)); higher = stronger signal-on switching upon ATP binding; sequences stand for … in TCGTCGGCAGCGTCAGATGTGTATAAGAGACAGTTTTTTTTTTTTTTTTTTTTTTTTT…TC
# Details: aptamer strand: ATP DNA aptamer (quencher-CACCTGGGGGAGTATTGCGGAGGAAGG + anchor), 100 nM annealed; ATP concentration: 500 uM; one replicate
# Outline: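 Per cluster, summed Cy3 intensity from the target cycles was divided by that from the buffer cycles to give the fluorescence ratio, then averaged per switch-domain sequence. Clusters outside 100-1000 RFU were excluded. The Cy3-labelled switching-strand clusters, on a modified Illumina MiSeq flow-cell, were annealed to 100 nM quencher-labelled ATP aptamer and imaged in selection buffer, then after 15 min with 500 uM ATP at 22 °C, for five cycles with NaOH stripping and re-annealing between them.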
# 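Further: ATP exposure 15 min at 22 °C before imaging.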
row,Sequence,switch fluorescence ratio
1,CGGTTCACTA,0.993
2,GCATAGATTC,1.02
3,TAACGTGGAC,1.43
4,TTGGCTATGC,1.05
5,ACGGCGATAG,1.04
6,CAGGTCCTAA,1.04
7,GAATCAGAGT,0.99
8,GAAGTTTTTA,0.981
9,GACGTGTATT,0.997
10,AAATCAATTG,0.974
11,GCCTGGTGTG,1.13
12,GTATTAGTTT,1.01
13,AGGTTGGACC,0.935
14,GGGGATGCCG,1.09
15,ATCGTAGCAT,1.31
16,GGCAGGAATT,1.01
17,TAGGGATCTT,0.977
18,CTCGGAAGGT,1.04
19,CCCGAGTCGG,1.05
20,TCGACTGTTG,1.01
21,TGGGCATGTT,1.01
22,TACTGACTTA,1.17
23,TCGGGCCCAT,1.38

row,Sequence,switch fluorescence ratio
1,CAGTCTGTTC,1.01
2,CACCTCTCGT,1.03
3,GTGGAAGAGA,0.96
4,AACACGGGAT,0.991
5,GTAGCGATG,1.38
6,CCCATGCTGC,1.2
7,GCGTATATGA,1.02
8,CTGGGGAAAT,1.01
9,GCCCGGAGAA,1.07
10,AGCTCGCTAT,1.01
11,GCGTAATGCA,1.03
12,CAAATTACGG,1.04
13,GCAGTTATGA,0.996
14,TCGAAGACTA,0.99
15,CTGTGTAAGT,0.984
16,TAGCTCGCTT,1
17,GCTCAGTGCG,1.03
18,TGCGACCTTT,0.996
19,TTTACTCTTA,1.02
20,GCGGTGGCGT,0.94
21,ACGCTGAGGC,1.05
22,TACAAAATAA,1.05
23,GGCATTTAAT,0.987

row,Sequence,switch fluorescence ratio
1,ATAGCGGCGT,1.03
2,TATATACCCA,1
3,AGCTAAGACA,1.01
4,TCGCCTGAGT,1.02
5,GTAGCCCTTT,0.995
6,GATTGAGAGG,0.963
7,ACACTGCACT,1.51
8,GCGCGAGGAA,1.02
9,GCATCAGACA,1.02
10,ACCGGGTATT,0.969
11,TTGGAAACAT,1.08
12,ATCGTCTATC,1.01
13,CAGTTCATTG,0.981
14,GAAATAGTAG,0.968
15,CTACAAGACC,1.14
16,TACGTTAACT,1.13
17,AAGGTTATCA,0.964
18,TCTTCACTCG,1.54
19,TGGGTTACAG,1.03
20,TTTATACGCC,1.12
21,TTTATCCGAA,1.04
22,AGGTAATGGA,0.997
23,GGAATTTCAC,1.09

row,Sequence,switch fluorescence ratio
1,GGCCCTAGTT,1.03
2,TGTTGTGGTT,1
3,GATAGAGGAT,0.978
4,GGGCAAGAGA,1.06
5,GGATTGGTGC,0.996
6,GCCTTTGTTA,0.968
7,GGTTCGAGTA,1.01
8,GGCAAAATGC,1.02
9,ATCGTCCCCG,1.02
10,GACATCGGAA,1.04
11,CTAACCTCCA,1.12
12,CAAGATTTAA,0.995
13,CCCGATCGG,1
14,CTGTGGGTGT,1.01
15,TCCACGACCT,1.08
16,TCACTTCGGT,0.916
17,GGTGGGGTCT,0.983
18,CGTTAAGTAT,0.982
19,AGCCCGAATA,1
20,AGTCCATTGT,0.983
21,GCCGATAATA,1.04
22,GCTTGATCAG,1.02
23,GGTAGAAGGT,0.949

row,Sequence,switch fluorescence ratio
1,CCGCACGATT,2.47
2,CGCAACGTTT,1.31
3,AATATCTAGT,1.02
4,GTTTTCCATC,1.01
5,CGTCCCCTA,1.04
6,CTTGATCTTA,0.933
7,GATTGGAATT,0.934
8,GAAAACAGGA,1.02
9,TTAATCAGCG,1.01
10,AAGATCTGTT,1.02
11,GCGATGGCGG,1.01
12,ATGTCAGCTG,1.03
13,ATTCGATGGT,0.979
14,TATGTGTCTT,0.987
15,AAACTCACGC,1.34
16,ACTCAGCGAC,3
17,TCATTAGGTT,0.983
18,TCTCTTCTGG,0.986
19,CTTCGGTTTG,1.18
20,AGGAGTGCT,1.01
21,ACCCCAGCCA,1.16
22,CGCTCGTGTA,1.04
23,GCTATTATT,1.01

row,Sequence,switch fluorescence ratio
1,TCTTTTGAGA,1.02
2,AACATGCCCG,1.07
3,TTACCAAATT,1.12
4,GATAGTTTGC,1.01
5,TTCGGAACAC,1.78
6,AGATCAATAT,0.967
7,AAAAGGGATA,0.946
8,GGAATAACAA,0.992
9,CAAAGGGGGC,1.03
10,ATCGGTTGGC,0.939
11,CAATCAGAAG,1
12,AGATAACCGC,1.12
13,GGTGGTCTAC,1.02
14,TGAATCTATT,0.992
15,ATCCTTACAG,1.02
16,ATAACCTCGT,1.01
17,AGAAGCTCGC,0.985
18,GAACAAGATA,1.03
19,TAAAGGACTC,0.989
20,TAAGGAAGAG,1.05
21,TCGCCTATGG,1.02
22,AAACCGAGCT,1.79
23,AGCTCGTTGT,0.966

row,Sequence,switch fluorescence ratio
1,AGGATAAGGG,1.01
2,GGCAGCCAGG,1.12
3,TTGTCCTCGG,0.968
4,CAGAAAGTGT,1.01
5,CCTGAGAAGT,1.04
6,AACAAGATGG,1.02
7,CACTCGGGTC,1.02
8,ACACTCGACC,1.14
9,AGGGACACGG,1.06
10,ACTATTTCCG,0.967
11,GCTGCGTTGA,1.07
12,AGATGCCCTA,0.956
13,ACCCCGCGTT,1.43
14,GCCAGGTAAA,1.03
15,GTGGTTGTT,1.01
16,ATTACACGGA,1.04
17,AGTCTGTGTC,0.978
18,AAAATCTATC,1.05
19,GCGGTTAATT,0.987
